{
  "source": "patent US20090023727A1",
  "about": "“PHTHALAZINONE DERIVATIVES” (priority 2007, published 2009)",
  "data": [
    {"target": "Mammalian PARP, isolated from Hela cell nuclear extract (Homo sapiens, UniProt P09874)", "sequence (P09874 whole entry)": "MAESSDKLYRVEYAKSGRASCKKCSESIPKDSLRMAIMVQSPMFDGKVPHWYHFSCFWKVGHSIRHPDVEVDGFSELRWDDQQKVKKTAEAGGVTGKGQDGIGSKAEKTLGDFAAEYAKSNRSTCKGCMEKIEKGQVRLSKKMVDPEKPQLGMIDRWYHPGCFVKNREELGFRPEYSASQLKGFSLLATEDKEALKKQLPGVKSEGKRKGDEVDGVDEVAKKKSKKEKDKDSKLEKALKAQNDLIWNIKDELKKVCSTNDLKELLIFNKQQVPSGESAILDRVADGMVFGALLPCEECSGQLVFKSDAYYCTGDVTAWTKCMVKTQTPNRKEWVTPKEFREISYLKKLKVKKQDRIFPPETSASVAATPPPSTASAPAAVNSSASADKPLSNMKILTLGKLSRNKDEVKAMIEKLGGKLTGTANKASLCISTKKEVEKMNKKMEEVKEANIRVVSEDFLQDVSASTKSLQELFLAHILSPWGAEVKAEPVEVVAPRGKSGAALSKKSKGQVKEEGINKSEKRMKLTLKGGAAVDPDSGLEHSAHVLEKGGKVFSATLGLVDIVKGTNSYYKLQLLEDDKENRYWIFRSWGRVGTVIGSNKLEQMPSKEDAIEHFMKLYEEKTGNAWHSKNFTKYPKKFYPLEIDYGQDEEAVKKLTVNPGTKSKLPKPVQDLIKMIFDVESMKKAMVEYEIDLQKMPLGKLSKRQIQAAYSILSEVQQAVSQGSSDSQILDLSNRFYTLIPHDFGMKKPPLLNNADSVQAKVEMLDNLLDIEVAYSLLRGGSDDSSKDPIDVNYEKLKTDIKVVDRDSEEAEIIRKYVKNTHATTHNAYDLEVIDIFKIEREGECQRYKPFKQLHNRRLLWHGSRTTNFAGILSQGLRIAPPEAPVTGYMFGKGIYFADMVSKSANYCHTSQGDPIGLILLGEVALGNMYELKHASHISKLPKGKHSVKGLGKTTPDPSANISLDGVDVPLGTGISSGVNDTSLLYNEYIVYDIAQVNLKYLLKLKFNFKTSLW", "test": "PARP inhibitory action assay (FlashPlate, 3H-NAD scintillation)", "conditions": "PARP enzyme activity, NAD 5 μM, 30° C., 45 minutes", "units": {"IC50": "nM"}, "values": [
      {"smiles": "COCCN1CCN(C(=O)c2cc(Cc3n[nH]c(=O)c4c3CCCC4)ccc2F)CC1", "note": "[10b]", "IC50": 7.3},
      {"smiles": "O=C(c1cccc(Cc2n[nH]c(=O)c3c2CCCC3)c1)N1CCC(OC2CCCC2)CC1", "note": "[5k]", "IC50": 5},
      {"smiles": "O=C(c1cc(Cc2n[nH]c(=O)c3c2CCCC3)ccc1F)N1CCC(Oc2ccccn2)CC1", "note": "[10u]", "IC50": 4},
      {"smiles": "CS(=O)(=O)N1CCN(C(=O)c2cc(Cc3n[nH]c(=O)c4c3CCCC4)ccc2F)CC1", "note": "[10r]", "IC50": 2},
      {"smiles": "O=C(c1cccc(Cc2n[nH]c(=O)c3c2CCCC3)c1)N1CCN(C(=O)C2CCCO2)CC1", "note": "(stereo not shown) [5d]", "IC50": 3.5},
      {"smiles": "CC(C)(C)OC1CCN(C(=O)c2cccc(Cc3n[nH]c(=O)c4c3CCCC4)c2)CC1", "note": "[5l]", "IC50": 6},
      {"smiles": "COc1ccccc1OC1CCN(C(=O)c2cc(Cc3n[nH]c(=O)c4c3CCCC4)ccc2F)CC1", "note": "[18d, 4-(4-fluoro-3-(4-(2-methoxyphenoxy)piperidine-1-carbonyl)benzyl)-5,6,7,8-tetrahydrophthalazin-1(2H)-one]", "IC50": 2},
      {"smiles": "O=C(c1cc(Cc2n[nH]c(=O)c3c2CCCC3)ccc1F)N1CCN(c2ccncc2)CC1", "note": "[10k]", "IC50": 5.9},
      {"smiles": "CCCOC1CCN(C(=O)c2cc(Cc3n[nH]c(=O)c4c3CCCC4)ccc2F)CC1", "note": "[18e, 4-(4-fluoro-3-(4-propoxypiperidine-1-carbonyl)benzyl)-5,6,7,8-tetrahydrophthalazin-1(2H)-one]", "IC50": 3},
      {"smiles": "CN(C1CCN(C(=O)c2cc(Cc3n[nH]c(=O)c4c3CCCC4)ccc2F)CC1)S(=O)(=O)C1CC1", "note": "[compound 14, N-(1-(2-fluoro-5-((4-oxo-3,4,5,6,7,8-hexahydrophthalazin-1-yl)methyl)benzoyl)piperidin-4-yl)-N-methylcyclopropanesulfonamide]", "IC50": 5},
      {"smiles": "CCCS(=O)(=O)N1CCN(C(=O)c2cc(Cc3n[nH]c(=O)c4c3CCCC4)ccc2F)CC1", "note": "[10t]", "IC50": 3},
      {"smiles": "CCOC1CCN(C(=O)c2cc(Cc3n[nH]c(=O)c4c3CCCC4)ccc2F)CC1", "note": "[10x]", "IC50": 4},
      {"smiles": "O=C(c1cccc(Cc2n[nH]c(=O)c3c2CCCC3)c1)N1CCNCC1", "note": "[5h]", "IC50": 5.8},
      {"smiles": "O=C(c1cc(Cc2n[nH]c(=O)c3c2CCCC3)ccc1F)N1CCC(N(C2CC2)S(=O)(=O)c2ccc(Cl)cc2)CC1", "note": "[10d]", "IC50": 3.3},
      {"smiles": "CN(C)C1CCN(C(=O)c2cc(Cc3n[nH]c(=O)c4c3CCCC4)ccc2F)CC1", "note": "[10i]", "IC50": 5.8},
      {"smiles": "O=C(c1cccc(Cc2n[nH]c(=O)c3c2CCCC3)c1)N1CCN(c2cccnc2)CC1", "note": "[5f]", "IC50": 5.5},
      {"smiles": "CC(C)OC1CCN(C(=O)c2cccc(Cc3n[nH]c(=O)c4c3CCCC4)c2)CC1", "note": "[compound 21, 4-(3-(4-isopropoxypiperidine-1-carbonyl)benzyl)-5,6,7,8-tetrahydrophthalazin-1(2H)-one]", "IC50": 8},
      {"smiles": "O=C(NC1CCC1)C1CCN(C(=O)c2cc(Cc3n[nH]c(=O)c4c3CCCC4)ccc2F)CC1", "note": "[17b, N-cyclobutyl-1-[2-fluoro-5-[(4-oxo-5,6,7,8-tetrahydro-3H-phthalazin-1-yl)methyl]benzoyl]piperidine-4-carboxamide]", "IC50": 2},
      {"smiles": "CC(C)COC1CCN(C(=O)c2cc(Cc3n[nH]c(=O)c4c3CCCC4)ccc2F)CC1", "note": "[10s]", "IC50": 2},
      {"smiles": "COCCOC1CCN(C(=O)c2cc(Cc3n[nH]c(=O)c4c3CCCC4)ccc2F)CC1", "note": "[18a, 4-(4-Fluoro-3-(4-(2-methoxyethoxy)piperidine-1-carbonyl)benzyl)-5,6,7,8-tetrahydrophthalazin-1(2H)-one]", "IC50": 5},
      {"smiles": "Cc1cccnc1N1CCN(C(=O)c2cc(Cc3n[nH]c(=O)c4c3CCCC4)ccc2F)CC1", "note": "[10ad]", "IC50": 3},
      {"smiles": "O=C(NC1CCN(C(=O)c2cc(Cc3n[nH]c(=O)c4c3CCCC4)ccc2F)CC1)c1ccccc1", "note": "[compound 19, N-(1-(2-Fluoro-5-((4-oxo-3,4,5,6,7,8-hexahydrophthalazin-1-yl)methyl)benzoyl)piperidin-4-yl)benzamide]", "IC50": 5},
      {"smiles": "O=C(c1cc(Cc2n[nH]c(=O)c3c2CCCC3)ccc1F)N1CCC(OC2CCCC2)CC1", "note": "[10o]", "IC50": 4},
      {"smiles": "CN(C)CCN(C)C(=O)C1CCN(C(=O)c2cc(Cc3n[nH]c(=O)c4c3CCCC4)ccc2F)CC1", "note": "[17g, N-(2-dimethylaminoethyl)-1-[2-fluoro-5-[(4-oxo-5,6,7,8-tetrahydro-3H-phthalazin-1-yl)methyl]benzoyl]-N-methylpiperidine-4-carboxamide]", "IC50": 9},
      {"smiles": "O=C(c1cccc(Cc2n[nH]c(=O)c3c2CCCC3)c1)N1CCN(C(=O)C2CC2)CC1", "note": "[5a]", "IC50": 4.8},
      {"smiles": "O=C(c1cc(Cc2n[nH]c(=O)c3c2CCCC3)ccc1F)N1CCN(c2cccc(C(F)(F)F)n2)CC1", "note": "[10ab]", "IC50": 4},
      {"smiles": "O=C(c1cccc(Cc2n[nH]c(=O)c3c2CCCC3)c1)N1CCC(N(C2CC2)S(=O)(=O)c2ccc(Cl)cc2)CC1", "note": "[5b]", "IC50": 5.2},
      {"smiles": "CC(C)OC1CCN(C(=O)c2cc(Cc3n[nH]c(=O)c4c3CCCC4)ccc2F)CC1", "note": "[compound 20, 4-(4-Fluoro-3-(4-isopropoxypiperidine-1-carbonyl)benzyl)-5,6,7,8-tetrahydrophthalazin-1(2H)-one]", "IC50": 3},
      {"smiles": "O=C(c1cc(Cc2n[nH]c(=O)c3c2CCCC3)ccc1F)N1CCN(C(=O)C2CCCO2)CC1", "note": "(stereo not shown) [10g]", "IC50": 2.2},
      {"smiles": "O=C(c1cc(Cc2n[nH]c(=O)c3c2CCCC3)ccc1F)N1CCNCC1", "note": "[10l]", "IC50": 5.4},
      {"smiles": "CN(C1CCN(C(=O)C2CCN(C(=O)c3cc(Cc4n[nH]c(=O)c5c4CCCC5)ccc3F)CC2)CC1)S(=O)(=O)C1CC1", "note": "[17h, N-[1-[1-[2-fluoro-5-[(4-oxo-5,6,7,8-tetrahydro-3H-phthalazin-1-yl)methyl]benzoyl]piperidine-4-carbonyl]piperidin-4-yl]-N-methylcyclopropanesulfonamide]", "IC50": 3},
      {"smiles": "CC1CCCCN1C(=O)C1CCN(C(=O)c2cc(Cc3n[nH]c(=O)c4c3CCCC4)ccc2F)CC1", "note": "(stereo not shown) [17f, 4-[[4-fluoro-3-[4-(2-methylpiperidine-1-carbonyl)piperidine-1-carbonyl]phenyl]methyl]-5,6,7,8-tetrahydro-2H-phthalazin-1-one]", "IC50": 4},
      {"smiles": "O=C(c1cc(Cc2n[nH]c(=O)c3c2CCCC3)ccc1F)N1CCC(N2CCCC2)CC1", "note": "[10h]", "IC50": 4.6},
      {"smiles": "O=C(c1cccc(Cc2n[nH]c(=O)c3c2CCCC3)c1)N1CCN(c2ccccn2)CC1", "note": "[5i]", "IC50": 3},
      {"smiles": "O=C(c1cc(Cc2n[nH]c(=O)c3c2CCCC3)ccc1F)N1CCN(C(=O)C2CC2)CC1", "note": "[10a]", "IC50": 2.9},
      {"smiles": "CC(C)CNC(=O)C1CCN(C(=O)c2cc(Cc3n[nH]c(=O)c4c3CCCC4)ccc2F)CC1", "note": "[17d, 1-[2-fluoro-5-[(4-oxo-5,6,7,8-tetrahydro-3H-phthalazin-1-yl)methyl]benzoyl]-N-(2-methylpropyl)piperidine-4-carboxamide]", "IC50": 6},
      {"smiles": "O=C(NCc1ccccc1)C1CCN(C(=O)c2cc(Cc3n[nH]c(=O)c4c3CCCC4)ccc2F)CC1", "note": "[17a, N-benzyl-1-[2-fluoro-5-[(4-oxo-5,6,7,8-tetrahydro-3H-phthalazin-1-yl)methyl]benzoyl]piperidine-4-carboxamide]", "IC50": 3},
      {"smiles": "COc1ccc(OC2CCN(C(=O)c3cc(Cc4n[nH]c(=O)c5c4CCCC5)ccc3F)CC2)cc1", "note": "[18b, 4-(4-fluoro-3-(4-(4-methoxyphenoxy)piperidine-1-carbonyl)benzyl)-5,6,7,8-tetrahydrophthalazin-1(2H)-one]", "IC50": 5},
      {"smiles": "COC1CCN(C(=O)c2cc(Cc3n[nH]c(=O)c4c3CCCC4)ccc2F)CC1", "note": "[10e]", "IC50": 5.3},
      {"smiles": "O=C(c1cc(Cc2n[nH]c(=O)c3c2CCCC3)ccc1F)N1CCN(c2ncccn2)CC1", "note": "[10c]", "IC50": 2.7},
      {"smiles": "O=C(c1cc(Cc2n[nH]c(=O)c3c2CCCC3)ccc1F)N1CCC(C(=O)N2CCOCC2)CC1", "note": "[17e, 4-[[4-fluoro-3-[4-(morpholine-4-carbonyl)piperidine-1-carbonyl]phenyl]methyl]-5,6,7,8-tetrahydro-2H-phthalazin-1-one]", "IC50": 7},
      {"smiles": "N#Cc1cccnc1N1CCN(C(=O)c2cc(Cc3n[nH]c(=O)c4c3CCCC4)ccc2F)CC1", "note": "[10af]", "IC50": 3},
      {"smiles": "Cc1ccnc(N2CCN(C(=O)c3cc(Cc4n[nH]c(=O)c5c4CCCC5)ccc3F)CC2)c1", "note": "[10ae]", "IC50": 6},
      {"smiles": "CN(C)C1CCN(C(=O)c2cccc(Cc3n[nH]c(=O)c4c3CCCC4)c2)CC1", "note": "[5e]", "IC50": 7.3},
      {"smiles": "CCS(=O)(=O)N1CCN(C(=O)c2cc(Cc3n[nH]c(=O)c4c3CCCC4)ccc2F)CC1", "note": "[10m]", "IC50": 52},
      {"smiles": "O=C(c1cccc(Cc2n[nH]c(=O)c3c2CCCC3)c1)N1CCC(Oc2ccc(Cl)cc2)CC1", "note": "[5c]", "IC50": 4.1},
      {"smiles": "O=C(c1cc(Cc2n[nH]c(=O)c3c2CCCC3)ccc1F)N1CCN(c2cccnc2)CC1", "note": "[10j]", "IC50": 4.2},
      {"smiles": "O=C(c1cc(Cc2n[nH]c(=O)c3c2CCCC3)ccc1F)N1CCN(c2ncncn2)CC1", "note": "[10ac]", "IC50": 6},
      {"smiles": "O=C(c1cccc(Cc2n[nH]c(=O)c3c2CCCC3)c1)N1CCN(CCO)CC1", "note": "[5g]", "IC50": 18},
      {"smiles": "O=C(c1cc(Cc2n[nH]c(=O)c3c2CCCC3)ccc1F)N1CCC(Oc2ccc(Cl)cc2)CC1", "note": "[10f]", "IC50": 3.2},
      {"smiles": "O=C(NCC1CC1)C1CCN(C(=O)c2cc(Cc3n[nH]c(=O)c4c3CCCC4)ccc2F)CC1", "note": "[17c, N-(cyclopropylmethyl)-1-[2-fluoro-5-[(4-oxo-5,6,7,8-tetrahydro-3H-phthalazin-1-yl)methyl]benzoyl]piperidine-4-carboxamide]", "IC50": 7},
      {"smiles": "O=C(c1cc(Cc2n[nH]c(=O)c3c2CCCC3)ccc1F)N1CCC(OCC2CC2)CC1", "note": "[10v]", "IC50": 4}
    ]}
  ]
}
